Measurements as given in PubChem BioAssay AID894 (National Center for Advancing Translational Sciences (NCATS), 2007).
In all, about 150,000 compounds went through this assay and about 6,500 (4.3%) were called active. The shares of active, inactive and inconclusive entries below differ from those in the screen. The call rests on the fitted dose curve; in most records, active means well fitted inhibition curve with a large enough effect (not every such curve was filed as active); inconclusive means small, poorly fitted or top-dose-only effect, or another doubt; inactive means no such curve, though single readings can be large or run the other way. Potencies of inconclusive entries are left out as doubtful fits.

Molecular target: 15-hydroxyprostaglandin dehydrogenase [NAD(+)] (Homo sapiens) (UniProt P15428)
Test: qHTS Assay for Inhibitors of HPGD (15-Hydroxyprostaglandin Dehydrogenase)
Conditions: purified HPGD, NADH fluorescence kinetic, PGE2 substrate; activity change, negative = inhibition: hits give low values
In short: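 20 nM HPGD preincubated 15 min at room temperature with compound in 50 mM Tris-HCl pH 8, 0.01% Tween 20. Started with 1 mM NAD+ and 30 uM prostaglandin E2; NADH fluorescence (360/450 nm) read 5 times over 30-s intervals, last minus first.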
On the % scale 0 is the no-effect control and ±100 the full control effect; potency means the concentration at half of the fitted maximal effect; tags describe the fitted curve by direction and shape.

Chain of UniProt P15428 (P15428 whole entry, looked up): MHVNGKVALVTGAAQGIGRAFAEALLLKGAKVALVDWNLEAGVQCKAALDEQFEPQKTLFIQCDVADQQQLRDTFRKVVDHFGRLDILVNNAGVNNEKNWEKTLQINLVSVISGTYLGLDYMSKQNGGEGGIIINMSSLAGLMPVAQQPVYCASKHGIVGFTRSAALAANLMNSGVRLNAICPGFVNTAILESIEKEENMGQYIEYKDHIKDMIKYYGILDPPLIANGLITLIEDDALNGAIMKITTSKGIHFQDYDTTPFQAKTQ

SMILES	Potency	activity change, negative = inhibition
CCn1cc([N+](=O)[O-])c(C(=O)Nc2nc(-c3ccc(C)cc3)c(C)s2)n1	inconclusive [inhibitor, single point]	–
CCn1c(SCC(=O)N2CCN(c3ccc(Cl)cc3)CC2)nc2ccccc2c1=O	inconclusive [inhibitor, single point]	–
O=c1[nH]c2cc3c(cc2cc1CN(Cc1nnnn1CC1CCCO1)C1CCCC1)OCO3 (centres undefined)	inconclusive [inhibitor, partial curve]	–
CC(=O)Oc1cc(C(F)(F)F)ccc1C(=O)O	inconclusive [inhibitor, partial curve]	–
COc1ccc(-c2c(C#N)c(N)nc3c2CCc2ccccc2-3)cc1OC	inconclusive [inhibitor, partial curve]	–
CCS(=O)(=O)N1CCN(C(=O)c2cccc(OC)c2)CC1	–	inactive: -3%
O=C(COc1ccccc1)NCc1ccc2c(c1)OCO2	inconclusive [inhibitor, single point]	–
C=CCn1c(C)cc(C)c(C#N)c1=O	inconclusive [inhibitor, single point]	–
O=c1oc2ccccc2cc1-c1cn2cccnc2n1	inconclusive [inhibitor, partial curve]	–
N#Cc1c(NC(=O)Cn2c(=O)oc3ccccc32)oc(-c2ccccc2)c1-c1ccccc1	inconclusive [inhibitor, partial curve, poor fit]	–
C[C@@H](C(=O)O)/C(=C/c1ccc2c(c1)OCO2)C(=O)O	–	inactive: -11%
COCCNC(=O)/C(C#N)=C/c1ccc(N2CCOCC2)o1	inconclusive [inhibitor, partial curve]	–
CC1=C(C(=O)Nc2cccc(F)c2)C(c2ccsc2)C2=C(CC(C)(C)CC2=O)N1 (centres undefined)	inconclusive [inhibitor, partial curve]	–
CCCc1nc(SCc2ccc(Cl)cc2Cl)n[nH]1	active: 15.8 µM	–
CCOC(=O)c1nc2nc(-c3cccs3)cc(C(F)(F)F)n2n1	inconclusive [inhibitor, partial curve]	–
O=C(NCc1ccccc1)c1cnsn1	inconclusive [inhibitor, partial curve]	–
CCc1ccc2c(c1)C(NC(C)=O)C(=O)N2CC (centres undefined)	–	inactive: -12.4%
COc1ccc(-n2nnnc2Sc2ccc(S(=O)(=O)N3CCOCC3)cn2)cc1	active: 7.08 µM	–
Cc1oc(=O)c(NC(=O)c2cccc(Cl)c2)cc1C(=O)c1ccccc1	active: 31.6 µM	–
COc1ccccc1NC(=O)C1=C(C)Nc2nnnn2C1c1cccc(C)c1 (centres undefined)	inconclusive [inhibitor, partial curve]	–
CC1CCCN(C(C(=O)NC2CCCCC2)c2cc3c(cc2[N+](=O)[O-])OCO3)C1 (centres undefined)	active: 31.6 µM	–
O=C1c2cccc(OCC(=O)N3N=C(c4cccs4)CC3c3ccc(F)cc3)c2CCN1Cc1ccccc1 (centres undefined)	inconclusive [inhibitor, partial curve]	–
N#CC1=C2SCN(Cc3ccco3)CN2C(=O)CC1c1ccccc1F (centres undefined)	active: 17.8 µM	–
COC(=O)c1cc2c(s1)-c1ccccc1OC2	inconclusive [inhibitor, full curve]	–
Cc1ccc(OCCCCNC(C)(C)C)c([N+](=O)[O-])c1	–	inactive: -4.03%

SMILES	Potency	activity change, negative = inhibition
Cc1ccc(C(=O)Nn2c(N)c(S(=O)(=O)c3ccc(C)cc3)c3nc4ccccc4nc32)cc1	inconclusive [inhibitor, partial curve]	–
Cc1ccc(OCc2n[nH]c(=S)n2C2CCCCC2)cc1	active: 14.1 µM	–
O=S(=O)(c1ccccc1)c1nc(-c2ccco2)oc1NCc1ccco1	–	inactive: 0.54%
Nn1cnnc1N/N=C/c1cc([N+](=O)[O-])c(Cl)cc1Cl	inconclusive [inhibitor, single point]	–
CC1CCCN(C(=O)C2CCN(CC(C)c3ccccc3)CC2)C1 (centres undefined)	active: 22.4 µM	–
CCOC(=O)C1=C(NC#N)OC(C)=C(C)C1c1ccc(O)cc1 (centres undefined)	–	inactive: -28.7%
CCc1cc2c3c(c(=O)oc2cc1O)CCCC3	inconclusive [inhibitor, full curve]	–
O=C(NC1(C(F)(F)F)NC(=O)N(C2CCCC2)C1=O)C1CC1 (centres undefined)	–	inactive: -12.2%
CC(=O)c1ccc(NC(=O)Nc2ccccc2)cc1	–	inactive: -3.79%
O=C(CSc1ccc(Cl)cc1)Nc1ccc(-c2nc3ccccc3[nH]2)cc1	inconclusive [inhibitor, partial curve]	–
O=C(C1c2ccccc2Oc2ccccc21)N1CCN(c2ccc(Cl)cc2)CC1	–	inactive: -13.7%
CC(C)C1O[C@H](/C=C\c2ccccc2)OCC1(C)C (some centres undefined)	–	inactive: -11.6%
COc1cc(/C=C/C(=O)OCC(=O)Nc2ccc3c(c2)OCCO3)ccc1O	inconclusive [inhibitor, partial curve]	–
NC(N)=Nc1nc(C2COc3ccccc3O2)cs1 (centres undefined)	–	inactive: -15.4%
Cc1ccc(-c2nc3cccnc3o2)cc1NC(=O)COc1ccc(Cl)cc1C	inconclusive [inhibitor, partial curve]	–
O=C(NCc1ccccc1)C12CC3CC(CC(C3)C1)C2	inconclusive [inhibitor, partial curve, poor fit]	–
COc1ccc(C2CC(c3ccccc3)n3nnnc3N2)cc1 (centres undefined)	–	inactive: -7.22%
CC(=O)c1ccc(NC(=O)COC(=O)c2c3c(nc4ccccc24)/C(=C\c2cccs2)CCC3)cc1	inconclusive [inhibitor, partial curve, poor fit]	–
Cc1cccc(N2C(=O)c3cccc4c(N(C)CCO)ccc(c34)C2=O)c1	inconclusive [inhibitor, partial curve]	–
CC1CCC2C(=O)N(c3ccc(C(=O)NCc4ccccc4)cc3)C(=O)C2C1 (centres undefined)	–	inactive: -14%
Cc1ccc(-c2nc3ccsc3c(=O)o2)cc1	–	inactive: -16.1%
O=C1CC(N2CCN(c3ccccc3Cl)CC2)C(=O)N1c1ccc(F)cc1 (centres undefined)	–	inactive: -4.73%
CC(=O)c1nc(N2C(=O)CC(Cc3ccccc3)C2=O)sc1C (centres undefined)	active: 28.2 µM	–
Cc1nc(-c2coc3cc(OCC(=O)O)ccc3c2=O)cs1	inconclusive [inhibitor, partial curve]	–
CC(=O)OC1=Cc2c(ccc3ccc(=O)oc23)OC1(C)C	inconclusive [inhibitor, partial curve]	–

SMILES	Potency	activity change, negative = inhibition
CC(=O)Nc1c(S(=O)(=O)c2ccccc2)c2nc3ccccc3nc2n1Cc1ccccc1	inconclusive [inhibitor, partial curve]	–
CCc1nnc(NC(=O)c2cccs2)s1	–	inactive: -9.46%
CCCCC1=CC2=CC(=O)C(C)(OC(=O)CC)C(=O)C2=CN1C1CCCC1 (centres undefined)	–	inactive: 0.89%
Nc1nonc1C(=O)NCCN=Cc1cc(Cc2ccccc2)cc(Br)c1O	active: 15.8 µM	–
COC(=O)CSC1=C(C#N)C(c2ccc3c(c2)OCO3)C2=C(CCCC2=O)N1 (centres undefined)	–	inactive: -18.3%
O=C(C1CCN(S(=O)(=O)c2cccs2)CC1)N1CCCCCC1	inconclusive [inhibitor, partial curve]	–
CN(C)S(=O)(=O)c1ccc(Cl)c(NC(=O)COc2ccccc2[N+](=O)[O-])c1	–	inactive: -2.93%
COc1cccc(-n2nnnc2S(C)(=O)=O)c1	active: 20 µM	–
Cc1noc(/C=C/c2ccco2)c1S(=O)(=O)N1CCC(C(=O)Nc2ccc(Cl)cn2)CC1	inconclusive [inhibitor, partial curve]	–
Cc1ccc(-c2nnn3c2nc(NCCc2ccc(S(N)(=O)=O)cc2)c2ccccc23)cc1	inconclusive [inhibitor, partial curve]	–
Cn1ncc(Cl)c1C(=O)Nc1sc2c(c1C(N)=O)CCC2	inconclusive [inhibitor, single point]	–
O=C(O)Cc1sc(-c2ccc(Cl)cc2)nc1-c1ccccc1	inconclusive [inhibitor, partial curve]	–
CCC(C)Sc1nc2c(c(=O)[nH]c(=O)n2C)n1CC(O)COc1ccccc1C (centres undefined)	active: 39.8 µM	–
c1ccc2c(N3CCCCC3)nc(N3CCCCC3)nc2c1	inconclusive [inhibitor, partial curve]	–
COc1ccccc1CNC(=O)c1cc2sccc2n1C	inconclusive [inhibitor, single point]	–
Cc1cc(C)nc(SCC(=O)N2CCCCC2)n1	active: 7.94 µM	–
CS(=O)(=O)Nc1ccc(N2CCCCC2)c(Cl)c1	active: 7.08 µM	–
Cc1nn(C)c2nc(NNC(=O)Nc3cc(Cl)nc(Cl)c3)cc(C(C)C)c12	–	inactive: -9.09%
CCN(CC)S(=O)(=O)c1cc(C(=O)Nc2cc(Cl)ccc2N2CCN(C)CC2)ccc1Cl	–	inactive: -16.4%
O=c1cc(-c2cc(O)c(O)c(O)c2)oc2cc(O)cc(O)c12	inconclusive [inhibitor, partial curve]	–
CN(C)S(=O)(=O)c1ccc(-c2cn3ccccc3n2)cc1	inconclusive [inhibitor, partial curve]	–
S=c1[nH]nc(-c2ccccn2)n1/N=C/c1cccc2ccccc12	active: 3.55 µM	–
CN(C)c1ccnc(Oc2ccccc2)c1C#N	inconclusive [inhibitor, partial curve]	–
CCc1c(C)sc(NC(=O)CC#N)c1C#N	inconclusive [inhibitor, partial curve]	–
